Measurements from the supplement of paper PMC11417369.
± gives the standard deviation of the averaged measurements. The list shows a part of the results.

Each sequence was assayed on PfAP2-LT AP2 domain (GST-tagged) (assay: gcPBM binding intensity (ln(normalized median fluorescence intensity)); higher = stronger DNA binding).
Summary of the method: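 Binding intensity values are the highest Masliner-normalised natural-log median intensity among replicate spots of either probe orientation. The binding step lasted 1 h in 1× PBS with 1% milk, 0.2 mg/ml BSA, 0.5% salmon testes DNA and 0.03% Triton X-100, using GST-tagged P. falciparum DNA-binding domains expressed in E. coli on an Agilent 4 × 180k array of primer-extended double-stranded 36-bp intergenic genomic probes plus negative controls. Alexa488 anti-GST antibody and a 488 nm scan detected bound protein.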

Sequence	gcPBM binding intensity (ln)
TATAAAAATAAGCACACACACAAATATATATTTATT [CACACA_site922]	9.71 ± 0.2
AAAAAAAAAAAAAAAGGTACACAAATACGTCCTGCA [XGTACX_site3354]	8.79 ± 0.42
TATACATATTTACAAGTGCATAATATTTTACAAAAA	8.54 ± 0.39
ATAAAATAAATAAATATAAATATATATATATATATA [TGCATGCA_negctrl_site358]	9.11 ± 0.19
CACTCTTAAAATAAGGTGCACTATATAACGTGATTA [GTGCAC_site9422]	8.71 ± 0.4
AAAAGAAAAGAGAGGAGTACAAAATATAATTATCTA [XGTACX_site5172]	8.76 ± 0.77
AAAAAAAAAAAAAGAACACACACAGTGCACATTCGG [CACACA_site8163]	9.18 ± 0.46
TGTATATATTAATGTACACACATGCGTATGTTCGTT [CACACA_site3583]	9.33 ± 0.38
TTATTTATTTATATAGTGCAATAAACACATAAATAG	8.35 ± 0.34
CATATTGGTATGCTCATGCACTTTTATTTTGTTATT [GTGCAC_site9553]	9.15 ± 0.57
AATTAGATACTAACAAGTACATATATATATATATAT [XGTACX_site2252]	9.84 ± 0.12
TTTCCCTAATGAAAGTGTACCTGTGAGAAAAAAAAG [XGTACX_site194]	8.54 ± 0.39
ATTTAGATTAACACTTGTACATAATACATACAAATA [XGTACX_site4147]	8.54 ± 0.42
ATTTTTTTTTGTGTATATAAATAAATAAATATATAT [GTGCAC_negctrl_site603]	8.37 ± 0.39
TTGTAATTATTAAACACACACAAAATATCTAGAATA [CACACA_site7231]	9.09 ± 0.35
CCGTAGTTTTAAAATAGTACTTTTATGGTTAATAAA [XGTACX_site3162]	8.35 ± 0.48
TTTTTTATTTTTTTATTGTTTTATTGTTTCATTGTT [XGTACX_negctrl_site128]	8.93 ± 0.63
TTACTACTATATTATACACACATATATTTATTTATA [CACACA_site7274]	9.01 ± 0.45
TATAAAAAGCAAAACAAAAAAACAAATTGAAAAATT [TGCATGCA_negctrl_site158]	8.63 ± 0.54
TATAAATAATAAAGATGTACTTTTTATGATTCCTAC [XGTACX_site7003]	9.21 ± 0.25

Sequence	gcPBM binding intensity (ln)
CAATTTATTTTTATTACACACTATCCAAATAATTTC [CACACA_site2956]	8.7 ± 0.46
CCATAAAATCATAAGCGTACTTAATATATTTTACTT [XGTACX_site559]	8.74 ± 0.34
AGCATACATATTTTTTGTACATATATATATATATAT [XGTACX_site8536]	9.72 ± 0.23
TATATAATAATTTAGAGTACTGATAAAATATTCCAT [XGTACX_site6200]	8.49 ± 0.44
AACATACGACAATACGCACACATATATGTACATATT [CACACA_site1917]	9.47 ± 0.33
TTAAACAATTTAGACATACACACAAAAATAATATTA [CACACA_site385]	8.97 ± 0.4
TAATTTTTCCTTTTTGCACACATTAACGTCGACGAA [CACACA_site4025]	9.12 ± 0.38
CCCTGCCTCTCTTTGGTGCGTTGTAACCCTCGAGGA	8.86 ± 0.45
AAAAAAAAAAAAAGCACACACACATATGTGTATATA [CACACA_site8225]	9.54 ± 0.28
TAAATTGTATATGAGACTATACTATAAAAGTATGAA [XGTACX_negctrl_site22]	8.6 ± 0.35
TGTCTGTGCGGGTGTACACATTTCATATTACCCAAT [CACACA_site5593]	9.05 ± 0.39
AACCTTACACAAGGGGTGCAATATTATTTCGATAAA [GTGCAC_site9600]	8.65 ± 0.43
TAATTTATAAAAAATTGTACATTAAACATATATATA [XGTACX_site5164]	8.37 ± 0.47
TGCTCCTATTATATAGTGCATTTATTTTAATAAACG	8.47 ± 0.38
TCTTTTCGTTCATGCTGTACTTAATTGCTCTAATTT [XGTACX_site4816]	8.99 ± 0.53
ACTAATATGTATATATATATATATATATATATATAT [CACACA_negctrl_site141]	9.72 ± 0.071
TACATATTTAAATACTGTACTCAAAAGAATTGTGCA [XGTACX_site2250]	8.56 ± 0.42
ATCAAAAAAAAAAAAAGTACACAAAATTTTTTATTA [XGTACX_site7986]	8.49 ± 0.52
TATATGTGTGTTATATGTACTTATATATATATATAT [XGTACX_site5570]	9.275 ± 0.064
AAGGTTTAAAATTACTGTACAAATATAAATAAATAT [XGTACX_site3756]	8.7 ± 0.41

Sequence	gcPBM binding intensity (ln)
ATAATGAACAAAGTAGTGCACTTTCCTTATCTTTTC	8.87 ± 0.46
GTTTATCACAGCCACGCACACATAATATCTGTATAT [CACACA_site5929]	9.32 ± 0.38
CTTATATTGTACAGTACACACCTTTATAATGTTATT [CACACA_site4280]	9.15 ± 0.44
GATTATTAATAGTAACGTACATATGTTATAAAATAT [XGTACX_site5277]	8.94 ± 0.47
TATAGTATTCTAAATGCATGTAAATTATGTATATAT [TGCATGCA_site931]	8.8 ± 0.28
TATATTATACTAAGAAGTACAATATTTTTATTGTAA [XGTACX_site2810]	8.35 ± 0.34
TAGTAAAAACCAAAATGTACATGTGCCATTTTTTTA [XGTACX_site2630]	8.71 ± 0.45
AAATTCCACGAACACACACACATATAAATAAATAAA [CACACA_site6697]	9.65 ± 0.36
ACATCAAGCAGACACACACACACACGCACACGCACA [CACACA_site6309]	10.4 ± 0.17
ACTATTCATGCATATACACACACATATATATATATT [CACACA_site9309]	9.58 ± 0.33
TTGTTTCTCTTTAAAAGTACAAAAATGGTTACATAT [XGTACX_site3109]	8.51 ± 0.49
TAGATTTTTTAATGTTGTACAAATATACGATATATA [XGTACX_site3258]	8.57 ± 0.32
AAATATATATAAAAGTGTACATTTGTTATAATCAGT [XGTACX_site4822]	9.01 ± 0.36
TAGATATATAATTTTTGTACGTAGTCGAATCTCAGA [XGTACX_site765]	8.54 ± 0.39
AACATTAAAAGGGATACACACATATAAATAAATAAT [CACACA_site489]	9.29 ± 0.45
CTCAACAAAATATGAGTGCATTGTTATTACATATAT	8.93 ± 0.48
TTATATATTTCTACTCATATTACAATGTGAGAAATA [CACACA_negctrl_site873]	8.3 ± 0.42
CCAACTAAAAAGGAATGTACATAGTTATGGTTGGAA [XGTACX_site8762]	9.04 ± 0.53
